Measured values reported in PubChem BioAssay AID686978 (National Center for Advancing Translational Sciences (NCATS), 2013).
Out of some 420,000 compounds screened, about 64,000 (15%) were called active. Inconclusive results, whose numbers are uncertain, are shown with a selection of clear calls. The call rests on the fitted dose curve; in most records, active means well fitted inhibition curve with a large enough effect; inconclusive means small, poorly fitted or top-dose-only effect; inactive means flat fitted curve, though single readings scatter. No potency is given beside an inconclusive call; the fits are too rough.
On the % scale 0 is the no-effect control and ±100 the full control effect; potency means the concentration at half of the fitted maximal effect; tags describe the fitted curve by direction and shape.

Test: qHTS for Inhibitors of human tyrosyl-DNA phosphodiesterase 1 (TDP1): qHTS in cells in absence of CPT; further: nearly all actives have a fitted effect of over 55% in size
Details: DT40 Tdp1-/- hTDP1 cells, no CPT, ATP luminescence, 48 h; activity change, negative = growth inhibition: at 46.2 µM (top of the series) unless noted
Summary of the method: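 Chicken DT40 Tdp1-/- cells stably complemented with human TDP1 were seeded at 400 cells/well with DMSO in place of 20 nM camptothecin. After compound pinning, cells grew at least 48 hr at 37 °C; viability read by CellTiter-Glo luminescence.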
With `Cc1ccccc1-n1nnnc1SCC(=O)Nc1ccc(N2CCN(C)CC2)cc1` the Potency was inconclusive [inhibitor, single point].
For `CC(C)CNC(=O)C(=O)NCC(c1ccc2c(c1)OCO2)N1CCOCC1` (centres undefined), the Potency was “inactive”.
With `COc1ccc(OC)c(NC(=O)CN(C)CCOc2ccc(Br)cc2)c1` the Potency was inconclusive [inhibitor, single point].
For `CC(=O)Nc1ccc(S(=O)(=O)N(C)C2CCN(C)CC2)cc1`, the Potency was “inactive”.
In the case of `c1ccc(-c2nc(NCCCN3CCOCC3)c3ccccc3n2)cc1`, the Potency is reported as inconclusive [inhibitor, single point].
For `COc1ccccc1CN1CCCC(CN(CCN(C)C)C(=O)c2ccc(C)cc2)C1` (centres undefined), the Potency was “inactive”.
In the case of `Cc1ccccc1NC(=S)N(CCN1CCOCC1)Cc1ccccc1F`, the Potency is reported as “inactive”.
For `CCCCCCNc1ccc(C(=O)OCC)cc1`, the Potency was inconclusive [inhibitor, single point].
In the case of `COc1cccc(CNC(=O)C2CCCCN2S(=O)(=O)c2ccc(F)cc2)c1` (centres undefined), the Potency is reported as inconclusive [inhibitor, single point].
With `COc1ccc(NC(=O)CN(Cc2ccccc2)Cc2ccccc2)cc1S(N)(=O)=O` the Potency was “inactive”.
For `COC(=O)[C@@]1(Cc2ccc(F)cc2)[C@@H]2[C@@H](CC(=O)[C@H]2CC(=O)C(=O)N(C)C)CN1C(=O)c1ccccc1`, the Potency was inconclusive [inhibitor, single point].
For `CCC(C(=O)N1CCOCC1)n1nc(C)c2sc3ccccc3c2c1=O` (centres undefined), the Potency was “inactive”.
In the case of `COc1ccc(Cc2noc(-c3ccc(C)cc3)n2)cc1`, the Potency is reported as “inactive”.
For `CCCN(CCC)c1nc(Cl)nc(NCCN2CCOCC2)n1`, the Potency was inconclusive [inhibitor, single point].
With `O=C(N/N=C/c1ccccc1OC(=O)c1ccc2c(c1)OCO2)c1cccc(F)c1` the Potency was active: 1.3 µM.
With `Cc1nn(Cc2ccccc2)c(C)c1C(=O)N1CCN(S(=O)(=O)/C=C/c2ccccc2)CC1` the Potency was inconclusive [inhibitor, single point].
For `COc1ccc(COc2cc(-c3cccc(OC)c3)nc3ccc(NC(=O)c4ccc(Cl)cc4)cc23)cc1`, the Potency was active: 16.4 µM.
In the case of `N#Cc1cc2cc3c(cc2nc1Cl)OCCO3`, the activity change, negative = growth inhibition is reported as inconclusive: -31.8% [inhibitor].
With `COc1ccc(-c2cc(C(=O)N/N=C(\C)c3cccnc3)c3ccccc3n2)cc1` the Potency was inconclusive [inhibitor, partial curve, poor fit].
With `CCOc1ccc(NS(=O)(=O)c2cccs2)cc1S(=O)(=O)N1CCCC1` the Potency was “inactive”.
With `C=CCn1c(SCC(=O)Nc2sc3c(c2C#N)CCC(C)C3)nc2cc(C(=O)O)ccc2c1=O` (centres undefined) the Potency was “inactive”.
For `O=C(C1CCN(S(=O)(=O)c2cccc3nsnc23)CC1)N1CCc2ccccc21`, the Potency was inconclusive [inhibitor, single point].
With `Cc1ccc(CCNC(=O)C(NS(=O)(=O)c2ccc3c(c2)oc(=O)n3C)C(C)C)cc1` (centres undefined) the Potency was “inactive”.
For `CCOC(=O)CSc1ccc2nnc(CCNS(=O)(=O)c3ccccc3)n2n1`, the Potency was “inactive”.
For `COc1ccc(C(C)(O)c2nc(-c3ccccc3)cs2)cc1` (centres undefined), the Potency was active: 13 µM.
In the case of `CC1=C(C(=O)NC2CC(C)(C)Cc3c2cnn3-c2cccc(F)c2)OCCO1` (centres undefined), the Potency is reported as inconclusive [inhibitor, full curve].
In the case of `Cc1ccc(N(CC(=O)N2CCN(c3ccccc3F)CC2)S(=O)(=O)c2c(C)noc2C)cc1`, the Potency is reported as inconclusive [inhibitor, partial curve].
With `CCc1nc2ccc(C(=O)NCc3ccc4c(c3)OCO4)cn2c1N(C)CCC(C)C` the Potency was active: 14.6 µM.
For `COc1ccc(S(=O)(=O)NCC2CCC(C(=O)N3CCC4(CC3)OCCO4)CC2)cc1` (centres undefined), the Potency was “inactive”.
With `Cc1ccc(-n2ccc(=O)c(-c3ccnc(SCc4cccc(Cl)c4)n3)n2)cc1` the Potency was inconclusive [inhibitor, single point].
For `Cc1ccc(S(=O)(=O)N2CCCCC2)cc1NC(=O)COC(=O)c1ccc2c(c1)OCO2`, the Potency was “inactive”.
In the case of `COc1ccc(OC)c(NC(=O)Nc2cc(NC(=O)Nc3cc(OC)ccc3OC)c(C)nc2C)c1`, the Potency is reported as inconclusive [inhibitor, partial curve].
For `O=C(Cc1cccs1)N1CCN=C1SCc1ccc(F)cc1`, the Potency was “inactive”.
With `O=C(NC1CCCCC1)C(c1cccs1)N(Cc1cccs1)C(=O)c1cccs1` (centres undefined) the Potency was active: 16.4 µM.
For `O=C(c1cccc(F)c1)N1CCC2(CCN(Cc3nccs3)CC2)CC1`, the Potency was “inactive”.
With `Nc1nc(Sc2ccc([N+](=O)[O-])cc2[N+](=O)[O-])n[nH]1` the Potency was inconclusive [inhibitor, single point].
For `CC(C)N1CCC1(C)C(=O)Nc1nccc2cccnc12` (centres undefined), the Potency was active: 5.17 µM.
With `CCCc1cc(Nc2c(C)n(C)n(-c3ccccc3)c2=O)n2c(nc3ccccc32)c1C#N` the Potency was inconclusive [inhibitor, single point].
In the case of `COc1cc2c(cc1OC)C(c1ccc(F)cc1)N(c1cccc(C#N)c1)C(=O)C2` (centres undefined), the Potency is reported as inconclusive [inhibitor, single point].
With `Cc1ccc2nc(N(CCCN(C)C)C(=O)c3ccc(S(=O)(=O)N4CCc5ccccc5C4)cc3)sc2c1` the Potency was active: 5.8 µM.
For `COC(=O)/C(=C\c1ccc(O)cc1)c1nc2ccccc2[nH]1`, the Potency was inconclusive [inhibitor, single point].
In the case of `Cc1ccc2nc(SCC(=O)N3CCN(c4ccccc4)CC3)[nH]c2c1`, the Potency is reported as inconclusive [inhibitor, single point].
For `O=C(NCc1ccccc1)c1cc(C2CCCCN2S(=O)(=O)Cc2ccccc2)on1` (centres undefined), the Potency was inconclusive [inhibitor, single point].
In the case of `Cn1c(=O)c(=O)n(C)c2cc(S(=O)(=O)N3CCCC3C(=O)Nc3ccccc3F)ccc21` (centres undefined), the Potency is reported as “inactive”.
In the case of `CCCn1nc(C(=O)Nc2cccc(C(=O)OC)c2)c2ccccc2c1=O`, the Potency is reported as inconclusive [inhibitor, single point].
For `CCNC(=O)N1CCCC(C(=O)c2ccc(-c3ccccc3)cc2)C1` (centres undefined), the Potency was active: 9.2 µM.
With `CCOC(=O)c1[nH]c(COC(=O)C2CC(=O)N(Cc3ccccc3)C2)c(C(=O)OCC)c1C` (centres undefined) the Potency was “inactive”.
For `COc1ccc(-n2c(SCC(=O)Nc3ccc([N+](=O)[O-])cc3OC)nc3ccccc32)cc1`, the Potency was inconclusive [inhibitor, partial curve].
In the case of `Cc1nonc1C1CCCN1C(=O)c1cc(COc2cccc(C(F)(F)F)c2)on1` (centres undefined), the Potency is reported as inconclusive [inhibitor, single point].
With `CC1CCN(C(=O)CSc2nnc(-c3cccnc3)n2C2CCCCC2)CC1` the Potency was “inactive”.
In the case of `O=C(CCC(=O)N1CCN(Cc2ccc(F)cc2)CC1)Nc1nnc(C2CCCCC2)s1`, the Potency is reported as “inactive”.
With `CN(C(=O)COC(=O)CNC(=O)c1sc2ccccc2c1Cl)c1ccccc1` the Potency was “inactive”.
With `COC(=O)c1ccc(NC(=S)NC2CCCCC2C)cc1` (centres undefined) the Potency was active: 25.9 µM.
In the case of `CCCC(=O)N1CCCC1(C)C(=O)Nc1ccc(OC(F)F)cc1` (centres undefined), the Potency is reported as “inactive”.
For `O=C(NCc1ccc(Cl)cc1)c1ccc2c(=O)n(CC3CCCO3)c(=S)[nH]c2c1` (centres undefined), the Potency was inconclusive [inhibitor, single point].
For `CCc1ccccc1N(CC(=O)NCc1ccc(OC)cc1)C(=O)CCC(=O)Nc1ccccn1`, the Potency was inconclusive [inhibitor, partial curve].
For `Nc1c(-c2cccs2)nc2ccccn12`, the Potency was inconclusive [inhibitor, single point].
With `COc1ccccc1NS(=O)(=O)c1ccc(Cl)cc1` the Potency was inconclusive [inhibitor, full curve, poor fit].
In the case of `O=C(Nc1cc(NC(=O)c2ccccc2F)ccc1Cl)c1ccccc1`, the Potency is reported as inconclusive [inhibitor, partial curve, poor fit].
With `CCc1nc2ccc(C(=O)Nc3ccc(NC(C)=O)cc3)cn2c1N(C)CCC(C)C` the Potency was active: 20.6 µM.
For `c1coc(-c2nc3ccccc3nc2-c2ccco2)c1`, the Potency was inconclusive [inhibitor, single point].
With `Cc1cc(C)n(-c2nc(NC(C)C)nc(NC(C)(C)C)n2)n1` the Potency was active: 0.794 µM.
In the case of `COc1ccccc1N1CCN(c2ccc([N+](=O)[O-])cc2Cl)CC1`, the Potency is reported as active: 11.6 µM.
In the case of `CCOC(=O)C1CCN(S(=O)(=O)c2ccc3c(c2)CC(C)N3C(=O)C2CCC2)CC1` (centres undefined), the Potency is reported as inconclusive [inhibitor, partial curve].
With `CCc1ccc(NC(=O)CSc2nccn2-c2ccc(OC)cc2)cc1` the Potency was inconclusive [inhibitor, single point].
In the case of `CCN(CC)CCC(=O)Nc1ccc2c(c1)N(C(=O)CN(CC)CC)c1ccccc1CC2`, the Potency is reported as “inactive”.
In the case of `N/C(Cc1ccc([N+](=O)[O-])cc1)=N\OC(=O)c1ccc([N+](=O)[O-])cc1`, the Potency is reported as inconclusive [inhibitor, partial curve, poor fit].
For `COC(=O)Nc1nnc(CC(=O)Nc2ccccc2C)s1`, the Potency was “inactive”.
For `COCCN(C(=O)COC(=O)Cc1ccc(Cl)cc1Cl)c1c(N)n(Cc2ccccc2)c(=O)[nH]c1=O`, the Potency was “inactive”.
With `O=C(NCCc1ccccc1)c1coc(=O)c(Br)c1` the Potency was active: 0.58 µM.
In the case of `O=C(C[n+]1ccc(/C=N/O)cc1)N1CCCCC1`, the Potency is reported as “inactive”.
In the case of `COc1cc(CNc2ccc(N3CCOCC3)cc2)ccc1OCC(=O)NC(C)(C)C`, the Potency is reported as inconclusive [inhibitor, single point].
In the case of `O=C(CCN1C(=O)COc2ccccc21)NCCCN1CCc2ccccc2C1`, the Potency is reported as “inactive”.
For `CC(=O)c1cccc(CN2CCC(C(=O)Nc3ccc(Oc4cccnc4)cc3)CC2)c1`, the Potency was active: 23.1 µM.
